Data on 40 sequences can be found in the supplement of paper PMC7826260.

The list shows a part of the results. Each Rep nickase domain was tested in vitro on the same pool of single strands (1 h at 37 °C, 3 µM enzyme); the outer parts of the 90-letter strands are left off. A value is the log2 ratio of uncut reads to the pool without enzyme; strong cutting gives strongly negative numbers. There is no active / inactive call. Reads are scaled to the total; uncut strands gain when others are lost, and binding without cutting may add a little.

This experiment concerns T1, Rep nickase domain of tomato golden mosaic virus.
T1 sequence (protein, residues 1-124, tag omitted): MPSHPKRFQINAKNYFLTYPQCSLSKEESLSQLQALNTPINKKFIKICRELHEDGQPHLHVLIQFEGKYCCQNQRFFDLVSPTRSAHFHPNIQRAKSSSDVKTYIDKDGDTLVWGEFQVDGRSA
In words: uncleaved DNA left, log2 of reads against the no-enzyme library (log2 ratio); higher = less cleavage (more negative = more Rep cleavage of the k-mer); sequences stand for … in CTCGTCCG…ACCGGAGA
How it is done:
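A pool of 90-nt single-stranded DNAs with seven random bases just before the constant AC of the nick site (name = the seven bases) was cut by 3 µM recombinant His6-SUMO-tagged Rep nickase domain (300 nM DNA, 50 mM HEPES pH 8.0, 50 mM NaCl, 1 mM MnCl2, 1 h, 37 °C, three replicates). Uncut DNA was amplified and sequenced.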
In the case of CGTACTA, the “uncleaved DNA left (log2)” value was -0.11. As for TCTTGCC, the “uncleaved DNA left (log2)” value was -0.0504.

As for TGCATTG, the “uncleaved DNA left (log2)” value came out at 0.0324.

Take ATGTCGA: the “uncleaved DNA left (log2)” value is -0.229. Regarding GCTCCCA, the “uncleaved DNA left (log2)” value is -0.0246. The same measure for CTATAGC: -0.0569; for TATGGCG: -0.0846. With GGGCACG, the “uncleaved DNA left (log2)” value is -0.168. Regarding ATGATAC, the “uncleaved DNA left (log2)” value was -0.0284. On to GAGCTAG, for which the “uncleaved DNA left (log2)” value is -0.0166. CAAGATT: the “uncleaved DNA left (log2)” value was -0.383. Turning to GGTACTT, the “uncleaved DNA left (log2)” value was -0.123. Consider TTAAGGG, for which the “uncleaved DNA left (log2)” value was 0.169. CAGATCG: the “uncleaved DNA left (log2)” value was -0.0967. TTATGTA: the “uncleaved DNA left (log2)” value is -0.11. As for TGGGATC, the figure is -0.0349. In the case of GGTTGGG, the “uncleaved DNA left (log2)” value is -0.0545.

Take TAGAGCG: the “uncleaved DNA left (log2)” value is -0.0327.

In the case of CGACACA, the “uncleaved DNA left (log2)” value is -0.1. For AACCCTT, the “uncleaved DNA left (log2)” value is -0.0865. With AAGAGCC, the “uncleaved DNA left (log2)” value is -0.00598.

Regarding AAGCTAA, the “uncleaved DNA left (log2)” value is 0.0752. Turning to CTCACTA, the “uncleaved DNA left (log2)” value was -0.0174. Turning to TTCTTCC, the “uncleaved DNA left (log2)” value is -0.164.

For CGGCTAT, the “uncleaved DNA left (log2)” value was -0.0658.

In the case of TTGTGAT, the “uncleaved DNA left (log2)” value was 0.0733. As for CTATGGG, the figure is 0.139.

As to GAGTACG, the “uncleaved DNA left (log2)” value was -0.169.

Consider ATAAGCA, for which the “uncleaved DNA left (log2)” value is 0.0482. For GCGTAGG, the “uncleaved DNA left (log2)” value is 0.0273. Consider CCGCTTA, for which the “uncleaved DNA left (log2)” value is 0.143. With ACAAACT, the “uncleaved DNA left (log2)” value was -0.0631. Regarding ATTGACA, the “uncleaved DNA left (log2)” value worked out at 0.0379. As for GCATGAG, the figure is 0.0239; as for CATGTCC, -0.207. Take AGCGTAG: the “uncleaved DNA left (log2)” value amounted to 0.0532. In the case of GCGGGGC, the “uncleaved DNA left (log2)” value worked out at 0.116. As for GAGGTAA, the figure is 0.0176; as for GAACCAC, -0.0946. On to CAAGAAC, for which the “uncleaved DNA left (log2)” value was 0.0688.
